# Measured values as given in a collection of fitness landscapes (doi:10.1016/j.celrep.2020.107928).
# Over roughly 81,000 sequences, “one-hybrid fitness for binding NBS DNA” has its median near -0.1; the highest 2% begin near 0.36. This is one part of the list.
# B1: Caulobacter ParB omega fusion; a variant is named by its letters at X, in order, B8GW30 (parent)
# chain: MESVVVGEPGMSEGRRGLGRGLSALLGEVDAAPAQAPGEQLGGSREAPIEILQRNPDQPRRTFREEDLEDLSNSIREKGVLQPILVRPSPDTAGEYQIVAGERAWRAAQRAGLKTVPIMVRELDDLAVLEIGIIENVQRADLNVLEEALSYKVLMEKFERTQENIAQTIGKSXSHVANXMRLLXLPDEVQSYLVSGELTAXHARAIAAAADPVALAKQIIEGGLSVRETEALARKAPNLSAGKSKGGRPPRVKDTDTQALESDLSSVLGLDVSIDHRGSTGTLTITYATLEQLDDLCNRLTRGI
# Variants of: B1
# Test: one-hybrid fitness for binding NBS DNA (the Noc-binding site; scaled: cognate 1, non-cognate 0); higher = stronger binding
# Details: with NBS DNA site
# Method in brief: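 Values were rescaled so that cognate is 1 and non-cognate is 0. Each is a fitness, the log change in a variant's read ratio to wild type from Illumina reads of plasmids before and after selection, with three replicate libraries pooled and variants under 10 reads dropped. Selection of the Caulobacter ParB libraries, four specificity codons randomised, used E. coli USO with a HIS3 reporter, site 19 bp from the promoter, on M9-minus-histidine with 0.1 mM IPTG and 5 mM 3-AT for 48 hours at 37°C.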
row,Variant,one-hybrid fitness for binding NBS DNA
1,RGVP,≤ 0.2
2,CCCT,≤ 0.2
3,QTSC,0.214
4,RQMP,≤ 0.2
5,GATL,≤ 0.2
6,NRDY,≤ 0.2
7,HGWS,≤ 0.2
8,PRGQ,≤ 0.2
9,TSIY,≤ 0.2
10,IATN,≤ 0.2
11,TRKQ,≤ 0.2
12,EQRG,≤ 0.2
13,YTSL,≤ 0.2
14,CYCT,≤ 0.2
15,CTGM,≤ 0.2
16,YHPT,≤ 0.2
17,MFTM,≤ 0.2
18,HSER,≤ 0.2
19,FDTD,≤ 0.2
20,ASKL,≤ 0.2
21,WWDR,≤ 0.2

row,Variant,one-hybrid fitness for binding NBS DNA
1,YPQL,≤ 0.2
2,SSCQ,≤ 0.2
3,HFAC,≤ 0.2
4,NTNF,≤ 0.2
5,WKSS,≤ 0.2
6,NVEV,≤ 0.2
7,VYQL,≤ 0.2
8,QKHD,≤ 0.2
9,MNRW,≤ 0.2
10,ERRD,≤ 0.2
11,QRHS,0.718
12,VSER,≤ 0.2
13,EQMT,≤ 0.2
14,RFRY,≤ 0.2
15,RTFY,≤ 0.2
16,MWAV,≤ 0.2
17,QQNL,≤ 0.2
18,QREG,≤ 0.2
19,QQYG,≤ 0.2
20,VPEI,≤ 0.2
21,HNEF,≤ 0.2

row,Variant,one-hybrid fitness for binding NBS DNA
1,LAYM,≤ 0.2
2,LQPL,≤ 0.2
3,PNGR,≤ 0.2
4,TKGR,≤ 0.2
5,AEYV,≤ 0.2
6,CTEC,≤ 0.2
7,LHTL,≤ 0.2
8,KTEG,≤ 0.2
9,CAIT,≤ 0.2
10,FWLS,≤ 0.2
11,RIYG,≤ 0.2
12,YDPS,≤ 0.2
13,RDFM,≤ 0.2
14,DPAY,≤ 0.2
15,INDS,≤ 0.2
16,FVFS,≤ 0.2
17,QDGW,≤ 0.2
18,PDET,≤ 0.2
19,FCTF,≤ 0.2
20,FEGA,≤ 0.2
21,LDVM,0.291

row,Variant,one-hybrid fitness for binding NBS DNA
1,RYSG,≤ 0.2
2,LGQF,≤ 0.2
3,FVDG,≤ 0.2
4,SFYC,≤ 0.2
5,FLGE,≤ 0.2
6,HICV,≤ 0.2
7,KKLM,≤ 0.2
8,KENL,≤ 0.2
9,VSSN,≤ 0.2
10,HLMF,≤ 0.2
11,YRWL,≤ 0.2
12,QGQF,≤ 0.2
13,YPNT,0.227
14,SANA,≤ 0.2
15,VHTQ,≤ 0.2
16,FFHR,≤ 0.2
17,MSQS,≤ 0.2
18,TYAT,≤ 0.2
19,ITHC,≤ 0.2
20,VYSS,≤ 0.2
21,VEQS,≤ 0.2
